# Results published in article PMC12136788.
# The list shows a part of the results.
# B1: chrX:45232703:45232704:-_ENSMUSG00000031099_ENSMUST00000088973|mus_hu|motif|central (ssRNA)
# RNA: GGGAGUUCUACAGUCCGACGAUCAGAUGGGACCCAUCGUUUAAAUUCAUUCAUCCAGUUGUGUAAAGUAGACUUUGGAACGGAAACCAUGUGAGGUCCAGGAAUAUUUCGGUAGUGUUUCAGGUAACCAAGCAAAGCAAUUGUCAACAGAGGAUUGAGCAUCA
# B2: 4331192_4342889_2322_3pUTR_ENSMUSG00000054611_ENSMUST00000075856|mouse|control|control (ssRNA)
# RNA: GGGAGUUCUACAGUCCGACGAUCCUUUUUGGCCACUGUACUAUAGGGACUCCAGUGAGGGCUAACUUGGGAUCGCUACUGGCAAGUUCUUCCAGCAAAAUCUUUACAUCAGCAAUCAGAGCAUCUUCGUCUUCUAUUCCUGUGCAACAGAGGAUUGAGCAUCA
# B3: 106643454_106643786_2940_ncRNA_ENSMUSG00000020719_ENSMUST00000133426|mouse|control|control (ssRNA)
# RNA: GGGAGUUCUACAGUCCGACGAUCAGAGUAGCCUCUGUCAUAGUUUUCCCUGUCUCUAAAGGUAUUAAAUCCACCCCUUUUGCCUGCAGAGUAUCUGUCACGACGAUCGUCCUUCAUGCCUCCUCUACCCCUGGAACGACCUGACAACAGAGGAUUGAGCAUCA
# B4: chr6:91700303:91700304:+_ENSMUSG00000030096_ENSMUST00000032185|mus_hu|FALSE|FALSE (ssRNA)
# RNA: GGGAGUUCUACAGUCCGACGAUCGAGAACUGGAGUGAUCACAGCCCAGCUGUACUUCAUCCAGGGCCCGGGCCGAUAGCCAAUCAUGUCCUCAAUACCAUCAUAAAGGUUAUCACCUCCAUAUAUCCAGGCAAUAACAAAACACAACAGAGGAUUGAGCAUCA
# B5: chr22:46125322:46125323:+_ENSG00000130638_ENST00000252934|hu_mus|FALSE|FALSE (ssRNA)
# RNA: GGGAGUUCUACAGUCCGACGAUCAAAGAUAGAGAUGUCAUCCUUUGUCAGCUGCUCCUCACCCACUAGCUUGGCUAUCACUAUGUCUAACAGUGUGAUCCUUUCCUGGUUGCUGAGUUUGCCAUACAUAGCUUCCACCAGUUCCAACAGAGGAUUGAGCAUCA
# B6: chr11:109522620:109522621:+_ENSMUSG00000020612_ENSMUST00000049527|mus_mus|FALSE|FALSE (ssRNA)
# RNA: GGGAGUUCUACAGUCCGACGAUCAUCCCCUUCAUCACCUUGCUGAAUAACCGUCUCUCCAGCAAUAAAGGAGACUGGAAACAUAGCAUCAAAAAUGUCACUUCUCUCGUUAUCAUCAAGGUGUGAAAACAGCACAUUCUUUUCCAACAGAGGAUUGAGCAUCA
# B7: 104650277_104654612_1041_CDS_ENSMUSG00000025133_ENSMUST00000026126|mouse|control|control (ssRNA)
# RNA: GGGAGUUCUACAGUCCGACGAUCCUGCUCCAAGAAAUGAGAGCUAACUUGCUCCAUCGAGCCCAAUAGCUUUGCAGCUUGAACACGAACCACCCAGGAGCCAUCACUGACCAUGUGGCAAAUUUUUCCAAAUGCAUCAUCAACCAACAGAGGAUUGAGCAUCA
# B8: chr5:21408736:21408737:-_ENSMUSG00000042453_ENSMUST00000161356|mus_hu|mus_mus_mus_hu_False|58_58 (ssRNA)
# RNA: GGGAGUUCUACAGUCCGACGAUCGUUGACAGAGUUGUAGAUGGUGGCUUCAUGGAACUGGAAAGGGGAGCAGCCAAUGCUAUUGGAAGAGGAAGGAAGGCACUGGGUCUGUACGAGCUGCCAGGAAUCCGAUCUUGCAUCCUUCAACAGAGGAUUGAGCAUCA
# B9: 50152517_50153095_583_3pUTR_ENSG00000139644_ENST00000395006|human|control|control (ssRNA)
# RNA: GGGAGUUCUACAGUCCGACGAUCUCUUGAUCUCCAUGUUCGGCCUUUUCAAUAAUGAGUUGAGUAUCAAAAAGGACGAAGCCACACAUGACCACCAGUCCCACAUACAGGUUUGCCUGGAAAAGCCAAAUGGAUCCAAAGAAACAACAGAGGAUUGAGCAUCA
# B10: chr10:75830775:75830776:+_ENSG00000035403_ENST00000372755|perfect_dup|FALSE|FALSE (ssRNA)
# RNA: GGGAGUUCUACAGUCCGACGAUCCAUAGUUUCCACUACCUCUGCCACUGUAAGAUAUUCCAAAAUUCCUUUGCAAACCCUAAUAAUUUUACGAACCUCAGCCUCAUCGAAGGUAAGCAGUAGGUCAGAUGUGCCAGAAAGGAUCAACAGAGGAUUGAGCAUCA
# B11: chr1:120316058:120316059:+_ENSMUSG00000064302_ENSMUST00000049404|mus_hu|motif|central (ssRNA)
# RNA: GGGAGUUCUACAGUCCGACGAUCCACCAUGUGUGUCUGAAGAGCAGCUGGUAGGAUAUUAAAAGUCCAAUUUAAAUAACGGGUAGGAGAUAAAGGAGUGAGUGGCAGAGUGAUGUUCUACUACUGGGUCUGAAAUACUUCAUACAACAGAGGAUUGAGCAUCA
# B12: chr5:132203191:132203192:+_ENSG00000164405_ENST00000378667|hu_hu|FALSE|FALSE (ssRNA)
# RNA: GGGAGUUCUACAGUCCGACGAUCAUUCUUCCUCUUGGAUCUCUCGAACUCUUCAGUCCCCCAUGUGUAGAUAAGAUAAAACACUACAAACUGCGGCACCACGCGAAAGAAAGACUCCCGAAUGCGGCGCAGAACAUUGGGGAUCAACAGAGGAUUGAGCAUCA
# B13: 26019306_26019426_1933_ncRNA_ENSMUSG00000025730_ENSMUST00000166619|mouse|control|control (ssRNA)
# RNA: GGGAGUUCUACAGUCCGACGAUCGGCAGUUCCCACAACCAUAGCCCCGUCCCUCCCUACAGGCAUUGACUCAAUCUCCCAGAACAGCAGGCUGGCGCAGCGUCUACCAGUGCCCUAGUAACAUCCAUGGUAAGAUGAUCUUAGCAACAGAGGAUUGAGCAUCA
# B14: chr1:121469438:121469439:-_ENSMUSG00000026383_ENSMUST00000052404|mus_mus|FALSE|FALSE (ssRNA)
# RNA: GGGAGUUCUACAGUCCGACGAUCCUGGCUGUUGACAUUAAUGUCAAUGGUAGGUCGAAGAGAUGGCAAGAUAGUCUGCUCUGUUUCAAGCUGUUUAAGCUUCUCUGUGUCAUCCUUUAAUGUCUCACAUUCAGCUUUGAAUUCCAACAGAGGAUUGAGCAUCA
# B15: chr19:58870598:58870599:-_ENSMUSG00000025092_ENSMUST00000066285|mus_hu|motif|central (ssRNA)
# RNA: GGGAGUUCUACAGUCCGACGAUCAUCUUUGACUAAUAAUGCAUUCUGACUCCUGUUUACAUUGGUGCAUGCGAUUCUUUGCGGCCCUGGCAAUUAACCAGACCUGGACUCUAAAAGCUAAACUUGGUCUAAAUAACAUUCUAACAACAGAGGAUUGAGCAUCA
# B16: chr20:35282059:35282060:-_ENSG00000101079_ENST00000349004|hu_mus|FALSE|FALSE (ssRNA)
# RNA: GGGAGUUCUACAGUCCGACGAUCGCUGGUCACAGACCUGCUAAAGGGACUUUCUCCAGAGCCAAUGCUACUUGAGGUGGAGUGGGUUCGUGAUCGGGCGAGCCGGGUCAUGCUGGCAGAUGGUAUGUAGCCCAUUCCCUGCAACAACAGAGGAUUGAGCAUCA
# B17: chr7:65705475:65705476:+_ENSG00000169902_ENST00000304842|hu_hu|hu_hu_hu_mus_True|68_98 (ssRNA)
# RNA: GGGAGUUCUACAGUCCGACGAUCUCUAUUCGGUGAUGGCAUUCCAUGGCAUGCUGGCCCAGGUAAAACACAGUCACAGAACUAAUCACCAGACACGCCAAGAGUAAGUUCUGCUUCAGCUUCCCAACCAUCUUGAUGUGGUUACAACAGAGGAUUGAGCAUCA
# B18: chr7:30656748:30656749:+_ENSG00000106105_ENST00000389266|hu_hu|motif|central (ssRNA)
# RNA: GGGAGUUCUACAGUCCGACGAUCAUCUGGAGAUAUUCCAACCUUCGUGAGGUAGAGGUAGAUGCGGCCAAUGAAAUAGCCGGAUACUGUGUUAUUAAUCACACCCUGUUCAACAGCAUCUCCCAGGCGCAUUUUCCGAGCGGACAACAGAGGAUUGAGCAUCA
# B19: 116110112_116112142_1374_CDS_ENSMUSG00000020780_ENSMUST00000021133|mouse|control|control (ssRNA)
# RNA: GGGAGUUCUACAGUCCGACGAUCAGGAAGCUGCAGCAAUUCCACCAGAUUCUGCAGAAUGAUGUCAUAGAGCCGGAUGAGGUCCUGAGGCCUGGGAGAGCGCUUGCUGUCAUCUUCCGGCUGCUGCUGCAGCAGAGCCCUGUGCAACAGAGGAUUGAGCAUCA
# B20: chr5:37680062:37680063:+_ENSMUSG00000029121_ENSMUST00000031004|mus_hu|mus_mus_mus_hu_False|58_78 (ssRNA)
# RNA: GGGAGUUCUACAGUCCGACGAUCUUUGGGUGUAGCUGGUACCUCGUACACAGGACCAUCGUACAUGCCCCUGGAAACACUAUGCAAUCCAAAAACCUUAUUCCUGAUUUUGACGCGCUGGUACAGGUGCUCCGGGAACGCCUUCAACAGAGGAUUGAGCAUCA
# B21: chr7:125879632:125879633:+_ENSMUSG00000033904_ENSMUST00000106557|mus_hu|motif|central (ssRNA)
# RNA: GGGAGUUCUACAGUCCGACGAUCGCAAUAUUCUUAUCCGGAAAUCUGGAUUUAUUAUUAUAUAGCCCUUUAUUCUCUCCGGAAUCAAGCAUGCUAGAAAAAACAGACUAUGAAGAACAAAAUAUACAGACUAAAUAGAAAAUACAACAGAGGAUUGAGCAUCA
# B22: chrX:71549762:71549763:+_ENSMUSG00000019087_ENSMUST00000019231|mus_mus|mus_mus_mus_hu_False|88_88 (ssRNA)
# RNA: GGGAGUUCUACAGUCCGACGAUCAAACCCGUGUACUUCUUAUUGUUACAUCACCCCCACCAGAAAACGAUAACGACAGCCAAGCAGGACAGACAGUUAAGUAGUACUUCCACACUCCCAAACUCAGGGAGCCCUAUAACCUUACAACAGAGGAUUGAGCAUCA
# Biological target: T1, UNK ZnF1-3 (human, UniProt Q9C0B0 31-174)
# T1 sequence: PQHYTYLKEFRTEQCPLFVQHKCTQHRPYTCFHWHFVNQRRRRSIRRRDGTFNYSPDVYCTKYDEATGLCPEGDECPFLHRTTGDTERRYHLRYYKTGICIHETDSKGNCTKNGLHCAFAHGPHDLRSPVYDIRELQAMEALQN
# Experiment: nsRBNS (natural sequence RNA bind-n-seq); RBNS binding buffer (assumed for nsRBNS): 25 mM Tris pH 7.5, 150 mM KCl, 3 mM MgCl2, 0.01% Triton X-100, 500 ug/ml BSA, 20 U/ml SUPERase-In, 4 C; UNK is unkempt and MSI1 is Musashi-1; names of the RNAs are library labels; protein concentration not given here; high values mean tight binding
row,Binder,binding signal
1,B1,1.33 enrichment R
2,B2,1.33 enrichment R
3,B3,1.1 enrichment R
4,B4,0.92 enrichment R
5,B5,0.734 enrichment R
6,B6,0.939 enrichment R
7,B7,1.4 enrichment R
8,B8,1.84 enrichment R
9,B9,1.58 enrichment R
10,B10,1.38 enrichment R
11,B11,3.05 enrichment R
12,B12,1.14 enrichment R
13,B13,1.17 enrichment R
14,B14,0.501 enrichment R
15,B15,0.819 enrichment R
16,B16,0.582 enrichment R
17,B17,0.61 enrichment R
18,B18,0.897 enrichment R
19,B19,0.753 enrichment R
20,B20,0.608 enrichment R
21,B21,1.67 enrichment R
22,B22,1.84 enrichment R
